In the supplement of paper PMC12217912:
The other results are listed elsewhere or left out. Sequences were assembled here from the parent chain. Inactive controls read about 0.05.

B1: TEV protease; numbered along this chain (parent)
chain: MGESLFKGPRDYNPISSSICHLTNESDGHTTSLYGIGFGPFIITNKHLFRRNNGTLVVQSLHGVFKVKDTTTLQQHLVDGRDMIIIRMPKDFPPFPQKLKFREPQREERICLVTTNFQTKSMSSMVSDTSCTFPSGDGIFWKHWIQTKDGQCGSPLVSTRDGFIVGIHSASNFTNTNNYFTSVPKNFMELLTNQEAQQWVSGWRLNADSVLWGGHKVFMVKPEEPFQPVKEATQL

Variants of: B1
Test: raw area under fraction-flipped curve 0-4 h after induction (AUC4h, not background-subtracted), DNA-recorder readout of cleavage of the substrate (dimensionless); higher = more cleavage of the substrate by the protease variant
Conditions: temperature: 34 °C; time window: 0-4 h after rhamnose induction
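Further: Bxb1 expression induced with 0.2% (w/v) L-rhamnose at OD600 near 0.5, cultures sampled hourly, flipped fraction per protease–substrate barcode pair counted by paired-end Illumina sequencing.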

Row | Variant | area with substrate EALYFQS | area with substrate ECLYFQS | area with substrate EDLYFQS | area with substrate EELYFQS | area with substrate EFLYFQS | area with substrate EGLYFQS | area with substrate EHLYFQS | area with substrate EILYFQS | area with substrate EKLYFQS | area with substrate ELLYFQS | area with substrate EMLYFQS | area with substrate EPLYFQS | area with substrate EQLYFQS | area with substrate ERLYFQS | area with substrate ESLYFQS | area with substrate ETLYFQS | area with substrate EVLYFQS | area with substrate EWLYFQS | area with substrate EYLYFQS
1 | E189V | 0.0947 | 0.0947 | 0.106 | 0.0867 | 0.0866 | 0.103 | 0.0913 | 0.105 | 0.0896 | 0.0788 | 0.057 | 0.0943 | 0.108 | 0.102 | 0.0843 | 0.123 | 0.1 | 0.0892 | 0.0881
2 | E189I | 0.146 | 0.0931 | – | 0.113 | – | 0.0674 | 0.107 | 0.078 | 0.118 | – | – | – | 0.118 | 0.093 | 0.0728 | 0.101 | – | 0.0836 | 0.0876
3 | S169C | 0.117 | 0.0912 | 0.118 | 0.109 | – | – | 0.1 | 0.0693 | 0.0872 | 0.117 | 0.0703 | – | – | 0.0841 | 0.094 | – | 0.0853 | 0.091 | –
4 | S169A | 0.119 | 0.136 | 0.131 | 0.15 | – | – | 0.127 | 0.0561 | 0.106 | – | 0.164 | – | 0.146 | 0.138 | 0.134 | 0.0972 | 0.127 | – | 0.108
5 | S169N | 0.0574 | 0.0647 | – | 0.0506 | – | 0.0614 | 0.062 | 0.0611 | – | – | 0.0502 | 0.0534 | 0.0588 | 0.0623 | 0.0638 | – | 0.0548 | 0.0601 | 0.061
6 | L191I | 0.0873 | 0.103 | – | 0.111 | – | – | 0.121 | 0.116 | 0.12 | – | 0.0998 | – | 0.108 | – | – | – | 0.0951 | – | 0.104
7 | W203R | 0.0765 | 0.0838 | 0.0725 | – | 0.0749 | – | – | – | – | 0.0633 | – | 0.0669 | 0.0555 | 0.0634 | 0.0658 | – | 0.0622 | – | –
8 | Q194S | 0.117 | 0.14 | – | 0.12 | 0.0997 | 0.0889 | – | 0.0939 | – | 0.0942 | 0.123 | 0.127 | 0.113 | 0.102 | – | – | 0.0947 | – | –
9 | T192Y | 0.138 | – | – | – | – | – | – | 0.136 | 0.156 | 0.079 | – | – | 0.0993 | – | – | 0.127 | – | – | –
10 | T192D | 0.108 | 0.0907 | 0.106 | – | – | – | 0.112 | 0.0824 | – | 0.0717 | – | 0.156 | – | 0.0882 | 0.11 | – | 0.0959 | – | 0.114
11 | T192P | 0.0607 | 0.0659 | 0.065 | 0.0684 | – | 0.0568 | 0.056 | 0.0613 | 0.0526 | 0.0577 | – | 0.0723 | 0.0967 | 0.0667 | 0.0659 | – | 0.0596 | 0.0667 | –
12 | R204N | 0.13 | 0.105 | 0.0512 | 0.138 | 0.081 | 0.095 | 0.117 | 0.104 | 0.104 | – | 0.121 | 0.131 | 0.121 | 0.111 | 0.137 | – | 0.0988 | – | 0.103
13 | R204E | 0.15 | 0.116 | – | 0.176 | – | – | 0.121 | 0.086 | 0.109 | 0.0817 | – | 0.188 | 0.136 | 0.105 | – | – | 0.101 | 0.1 | –
14 | F180I | 0.0676 | 0.063 | 0.0557 | 0.0533 | 0.061 | 0.0536 | – | – | 0.0826 | – | 0.0476 | 0.0727 | 0.0732 | 0.0881 | 0.0668 | – | 0.0471 | 0.0487 | 0.0477
15 | Q198Y | 0.108 | 0.0838 | 0.114 | 0.129 | 0.0953 | 0.108 | 0.0787 | 0.103 | 0.0936 | 0.0765 | 0.0998 | 0.0485 | 0.0997 | 0.0981 | 0.093 | 0.0993 | 0.0838 | 0.0762 | –
16 | Q198V | 0.138 | 0.101 | 0.153 | – | – | 0.0882 | 0.12 | – | – | 0.105 | 0.123 | 0.104 | 0.098 | – | – | – | – | – | 0.106
17 | T176L | 0.0431 | 0.0727 | – | 0.0708 | – | 0.0559 | 0.065 | 0.0684 | 0.0753 | – | 0.0833 | 0.0566 | 0.0606 | – | 0.0518 | – | 0.0767 | 0.0921 | 0.0848
18 | S201P | 0.0754 | 0.0622 | 0.0559 | – | – | 0.0468 | 0.0758 | 0.0534 | – | 0.0544 | 0.0587 | – | 0.0656 | 0.0574 | 0.062 | 0.0596 | 0.064 | 0.0568 | –
19 | Q197C | 0.151 | 0.116 | 0.137 | – | – | 0.105 | 0.141 | 0.0937 | 0.0894 | – | 0.148 | – | 0.132 | – | – | 0.113 | 0.0858 | – | 0.112
20 | S171G | 0.0602 | 0.0753 | 0.0756 | – | – | – | – | 0.0547 | – | – | 0.0697 | – | – | 0.0725 | – | – | – | – | –
21 | A196N | 0.115 | 0.0987 | 0.149 | – | – | – | 0.0817 | – | 0.112 | 0.0941 | 0.131 | – | 0.117 | 0.0964 | 0.117 | – | 0.101 | 0.0845 | –
22 | S209C | 0.114 | 0.101 | 0.0747 | – | 0.114 | – | 0.106 | 0.127 | 0.0902 | 0.085 | 0.112 | – | 0.103 | 0.0951 | 0.0862 | 0.13 | 0.0815 | – | –
23 | G202V | 0.0629 | 0.0694 | 0.0713 | 0.0726 | – | 0.0465 | 0.0608 | 0.062 | 0.0654 | 0.0576 | 0.0674 | – | 0.071 | 0.0631 | 0.0638 | 0.0544 | 0.104 | 0.0499 | 0.0561
24 | G202N | 0.0801 | 0.0609 | – | 0.0809 | 0.0719 | – | – | 0.0616 | – | 0.0716 | 0.0675 | 0.0505 | 0.0824 | 0.0876 | 0.0644 | – | – | 0.082 | –
25 | G202S | 0.0825 | 0.0591 | 0.0862 | 0.0586 | – | 0.081 | – | 0.0958 | – | – | 0.0778 | 0.0474 | 0.0799 | – | 0.0553 | – | 0.0754 | 0.0767 | –
26 | G214M | 0.0841 | 0.082 | 0.0572 | 0.0749 | – | – | – | 0.0638 | – | – | – | – | – | 0.0697 | 0.0782 | – | 0.039 | 0.0572 | –
27 | G214K | 0.0983 | 0.0733 | 0.126 | – | 0.11 | – | 0.141 | 0.054 | 0.0963 | 0.1 | 0.0621 | 0.0887 | 0.1 | 0.0769 | 0.086 | – | 0.104 | 0.0918 | 0.118
28 | G214V | 0.0954 | 0.092 | – | 0.117 | – | 0.0794 | 0.076 | – | 0.0842 | – | – | – | – | – | 0.0763 | 0.0744 | – | – | –
